About 2,200 (0.71%) of roughly 310,000 compounds showed an effect of 50% or more. Effects have a minus sign here. Some of the results follow.

Sequence of human ether-à-go-go-related gene (hERG) potassium channel (Q12809 whole entry, looked up): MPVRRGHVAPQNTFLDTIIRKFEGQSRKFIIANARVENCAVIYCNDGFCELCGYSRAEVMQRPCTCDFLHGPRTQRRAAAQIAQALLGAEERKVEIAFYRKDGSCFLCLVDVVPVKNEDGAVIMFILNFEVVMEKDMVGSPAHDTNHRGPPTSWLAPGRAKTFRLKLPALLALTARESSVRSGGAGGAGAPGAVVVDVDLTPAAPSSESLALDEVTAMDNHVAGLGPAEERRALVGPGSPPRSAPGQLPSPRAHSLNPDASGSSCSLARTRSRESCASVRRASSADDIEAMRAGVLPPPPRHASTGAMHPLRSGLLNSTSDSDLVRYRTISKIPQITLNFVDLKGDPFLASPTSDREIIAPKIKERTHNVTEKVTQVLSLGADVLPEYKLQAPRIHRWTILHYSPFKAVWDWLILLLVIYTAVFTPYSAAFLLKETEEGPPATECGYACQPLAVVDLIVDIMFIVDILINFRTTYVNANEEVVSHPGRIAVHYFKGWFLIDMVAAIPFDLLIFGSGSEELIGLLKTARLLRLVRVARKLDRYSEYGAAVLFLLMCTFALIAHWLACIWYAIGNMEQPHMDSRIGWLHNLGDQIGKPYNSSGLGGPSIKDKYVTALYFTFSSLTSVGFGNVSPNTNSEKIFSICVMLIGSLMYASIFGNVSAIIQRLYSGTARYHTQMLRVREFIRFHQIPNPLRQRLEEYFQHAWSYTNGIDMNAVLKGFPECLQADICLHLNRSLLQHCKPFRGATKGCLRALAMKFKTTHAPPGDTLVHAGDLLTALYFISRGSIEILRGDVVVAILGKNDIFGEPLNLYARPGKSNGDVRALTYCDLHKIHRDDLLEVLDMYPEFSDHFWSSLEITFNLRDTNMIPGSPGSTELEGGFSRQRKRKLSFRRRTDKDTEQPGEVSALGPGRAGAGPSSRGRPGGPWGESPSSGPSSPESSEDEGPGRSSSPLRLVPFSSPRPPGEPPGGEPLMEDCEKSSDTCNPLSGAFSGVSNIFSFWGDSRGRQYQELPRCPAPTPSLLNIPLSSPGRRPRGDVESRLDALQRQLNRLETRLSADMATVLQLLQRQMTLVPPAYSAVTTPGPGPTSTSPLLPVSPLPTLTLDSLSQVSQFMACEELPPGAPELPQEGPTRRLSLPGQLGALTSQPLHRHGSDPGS

This assay addresses human ether-à-go-go-related gene (hERG) potassium channel (human, UniProt Q12809). Nature of the assay: primary screen, population patch clamp on CHO cells stably expressing hERG.
Consider `CC(C(=O)N1CCCCC1)N(C)CC(=O)Nc1ccc(Cl)cc1` (centres unmarked), for which the “hERG current change (%, negative = inhibition) at 1uM” value was 13.5%. As for `COc1ccc(/C=C2\SC(=O)N(CC(=O)Nc3ccc(F)cc3)C2=O)cc1O`, the figure is 13.3%. The value for `Cl.O=C(CN1CCN(c2ccc(F)cc2)CC1)N1CCC(Cc2ccccc2)CC1` was -5.57%; that for `Nc1ccccc1C(=O)NC1CCCNC1=O` (centres unmarked) was 8.51%; that for `COC(=O)CC1COc2ccccc2N1C(=O)/C=C/c1ccccc1` (centres unmarked) was 7.05%. With `COc1ccc(CNC(=O)c2ccc(Cn3nc(C)c([N+](=O)[O-])c3C)o2)cc1`, the “hERG current change (%, negative = inhibition) at 1uM” value was 8%.

For `CC(C)CC(C(=O)N1CCOCC1)N1Cc2ccccc2C1=O` (centres unmarked), the “hERG current change (%, negative = inhibition) at 1uM” value is listed as 15%. As for `Cc1oc2c(C)c(O)ccc2c(=O)c1-c1cnn(-c2ccccc2)c1`, the figure is 13%; as for `O=C(NC1CCCc2ccccc21)c1ccccc1OC(F)F` (centres unmarked), 8.58%; as for `O=C(/C=C/c1ccc(O)cc1)c1ccc(NC2=C(N3CCCCC3)C(=O)c3ccccc3C2=O)cc1`, -4.17%. The value for `Cc1cc(OC(=O)c2ccccc2Cl)cc(=O)n1C` was -13.1%; that for `CC12CCC(=O)N1C(C(=O)NNC(=O)c1ccc(Cl)cc1)CS2` (centres unmarked) was 1.41%. Turning to `Cc1cc(C)c(S(=O)(=O)Nc2cccc(C(=O)O)c2)cc1S(=O)(=O)Nc1cccc(C(=O)O)c1`, the “hERG current change (%, negative = inhibition) at 1uM” value was determined as 14.6%. Turning to `CCC(CC)c1nnc(NC(=O)CS(=O)(=O)c2ccc(C)cc2)s1`, the “hERG current change (%, negative = inhibition) at 1uM” value is on record as 18.7%. The value for `O=C(NCCCN1CCN(CCCNC(=O)c2ccc(F)cc2)CC1)c1ccc(F)cc1` was -15.3%.

With `COc1ccc(NS(=O)(=O)c2cccc(C(=O)N3CCCCCC3)c2)cc1`, the “hERG current change (%, negative = inhibition) at 1uM” value was 4.86%. The value for `COc1ccc(NC(=O)C2(S(=O)(=O)c3ccc(C)cc3)CC2)cc1OC` was 7.72%. As for `Cc1ccccc1NS(=O)(=O)c1ccc2c(c1)n(C)c(=O)n2C`, the figure is 7.79%; as for `CCCNC(=O)c1c(CSc2ccc(Cl)cc2)noc1C(=O)NCc1ccccc1`, 11.5%. As for `CCCC1(c2ccccc2)NC(=O)N(CC(=O)Nc2sc(-c3ccccc3)cc2C(=O)OCC)C1=O` (centres unmarked), the figure is 18.4%; as for `CCC(C)NC(=O)c1n[nH]c(=O)c2ccccc12` (centres unmarked), -4.71%; as for `Cc1ccnc2nc(C(=O)OCC(=O)NC3CCC(C)CC3)nn12` (centres unmarked), 3.89%. As to `Cc1sc2ncnc(Sc3nc4ccccc4s3)c2c1C`, the “hERG current change (%, negative = inhibition) at 1uM” value is listed as 6.29%. Turning to `O=C(O)c1sccc1SCc1ccc(Cl)c(Cl)c1`, the “hERG current change (%, negative = inhibition) at 1uM” value is 13.2%. As for `CCOc1ccccc1NC(=O)CSc1ccc([N+](=O)[O-])cc1`, the figure is 9.71%; as for `Cc1nnc(SCC(=O)Nc2nc3ccccc3s2)n(N)c1=O`, 3.52%; as for `Cc1ccc(Cl)cc1Nc1nc(N2CCOCC2)nc(N2CCOCC2)n1`, 7.4%. The value for `CCc1ccccc1NC(=O)c1sc2nc(C)cc(C)c2c1N` was 9.99%. The value for `C/C(=N\NC(=O)NC1CCCCC1)c1ccc(Cl)s1` was 12.3%; that for `CCOc1ccc(CN2CCN(Cc3cccn3-c3ncccn3)CC2CCO)cc1` (centres unmarked) was -84%. For the compound `CC(NC(=O)COc1ccc(Br)cc1)C1CCCO1` (centres unmarked), the “hERG current change (%, negative = inhibition) at 1uM” value worked out at 14.6%.

In the case of `COc1ccc(Cc2nnc(SCC(=O)NC3(C#N)CCCCC3)n2N)cc1`, the “hERG current change (%, negative = inhibition) at 1uM” value was 11.7%. As for `CCCCOc1ccc(-c2nc(-c3cccnc3)no2)cc1`, the figure is 0.657%. The value for `Cc1ccc2[nH]c(=O)c(C(c3nnnn3CC3CCCO3)N3CCCc4ccccc43)cc2c1` (centres unmarked) was -11.7%; that for `CCC(=O)Nc1ccc(-c2ccc(N3CCCCC3)nn2)cc1` was 19.4%. The value for `COc1ccc(C2CC(=O)Oc3c(C(CCN4CCOCC4)c4cc(OC)c(OC)c(OC)c4)c(OC)cc(OC)c32)cc1` (centres unmarked) was 14.6%; that for `COC(=O)Cc1c(O)ccn(C2CC2)c1=O` was 2.25%; that for `COc1ccc(NS(=O)(=O)c2cccc(NC(=O)c3ccc(Cl)nc3)c2)cc1` was 1.06%. As for `COc1ccc(-n2c3c(cc(C(=O)NNc4ccccc4C)c2=O)C(=O)CC(C)(C)C3)cc1`, the “hERG current change (%, negative = inhibition) at 1uM” value was found to be 15.2%. As for `COC(=O)c1ccc(NC(=O)c2ccccc2NS(C)(=O)=O)cc1`, the figure is 7.41%; as for `O=C(Nc1ccc2c(c1)OCO2)c1ccc(S(=O)(=O)NCC2CCCO2)cc1` (centres unmarked), 14.8%. As for `O=C1CC(N2CCN(Cc3ccc4c(c3)OCO4)CC2)C(=O)N1c1cccc2ccccc12` (centres unmarked), the figure is 9.23%.

Turning to `COc1ccc(NS(=O)(=O)c2ccc3c(c2)[C@H]2C=CC[C@H]2[C@@H](c2ccc(C(=O)O)cc2)N3)cc1`, the “hERG current change (%, negative = inhibition) at 1uM” value turned out to be 18.1%.

As for `COC(=O)c1cc(C#N)c(OC(C)C)nc1C`, the “hERG current change (%, negative = inhibition) at 1uM” value was 5.15%. The value for `Cc1ccccc1N1C(=O)CC2(CCCC2)CC1=O` was 12.5%. As for `CCOC(=O)C(C(C)=O)C(c1ccc(OC)cc1)C(C(C)=O)C(=O)OCC` (centres unmarked), the figure is -0.0659%; as for `CC1(C)CC(=O)c2c(n(-c3cccc4ccccc34)ccc2=O)C1`, 15%. Consider `COC(=O)C1=C(C)N(Cc2ccc(OC)c(OC)c2)C(=O)C1`, for which the “hERG current change (%, negative = inhibition) at 1uM” value was 8.42%. `Cc1cc(C)n(C(=O)CNc2ccc(C)c(C)c2)n1`: the “hERG current change (%, negative = inhibition) at 1uM” value was 8.86%. `Cn1c(C(=O)Nc2ccc3c(c2)OCCO3)cc2c(=O)n(C)c3ccccc3c21`: the “hERG current change (%, negative = inhibition) at 1uM” value is on record as 8.01%. Consider `O=C(N/N=C/c1ccc2c(c1)OCO2)C1COc2ccccc2O1` (centres unmarked), for which the “hERG current change (%, negative = inhibition) at 1uM” value is 17.2%. As for `COc1ccc(N(C(C)C(=O)NCc2ccco2)S(C)(=O)=O)cc1` (centres unmarked), the figure is 8.88%.

Take `Cc1ccc(NS(=O)(=O)c2ccc3[nH]c(=O)oc3c2)c(C)c1`: the “hERG current change (%, negative = inhibition) at 1uM” value was 6.5%. As for `CCOC(=O)/C(=N\Nc1ccccc1)c1csc(Nc2ccc(C)cc2)n1`, the figure is 10.1%; as for `COC(=O)c1sc(-c2ccccc2)cc1NC(=O)c1ccc(F)cc1`, 6.03%; as for `CCCCCNC(=O)c1cc(S(=O)(=O)N2CCCCC2)ccc1F`, -4.63%.

The values above are taken from article PMC4336329 (PLoS ONE, 2015).
